# Assay results reported in PubChem BioAssay AID485294 (National Center for Advancing Translational Sciences (NCATS), 2010).
# Out of some 370,000 compounds screened, about 150 (0.041%) were called active. Inconclusive results, whose numbers are uncertain, are shown with a selection of clear calls. Calls come from the whole dose curve; as a rule, active = well fitted inhibition curve with a large enough effect; inconclusive = small, poorly fitted or top-dose-only effect; inactive = flat fitted curve, though single readings scatter. No potency is given beside an inconclusive call; the fits are too rough.
# Biological target: Beta-lactamase (Escherichia coli (strain K12)) (UniProt P00811)
# Test: qHTS Inhibitors of AmpC Beta-Lactamase (assay with detergent); note: nearly all actives have a fitted effect of over 25% in size
# Settings: AmpC hydrolysis of nitrocefin, absorbance 480 nm, 0.01% Triton; series mostly up to 114 µM
# Procedure, shortened: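 20 mM phosphate pH 7.0 + 0.01% (detergent screen) or 0.0001% Triton X-100; 5.3 nM AmpC reagent; cpd preinc 15 min RT; nitrocefin (800 uM stock) to start; A480 q20 s × 4 min; Activity was normalised to no-enzyme and no-compound control wells.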
# Potency is the fitted concentration of half-maximal effect; tags give direction and shape of the fitted curve.
# Sequence of UniProt P00811 (P00811 whole entry, looked up): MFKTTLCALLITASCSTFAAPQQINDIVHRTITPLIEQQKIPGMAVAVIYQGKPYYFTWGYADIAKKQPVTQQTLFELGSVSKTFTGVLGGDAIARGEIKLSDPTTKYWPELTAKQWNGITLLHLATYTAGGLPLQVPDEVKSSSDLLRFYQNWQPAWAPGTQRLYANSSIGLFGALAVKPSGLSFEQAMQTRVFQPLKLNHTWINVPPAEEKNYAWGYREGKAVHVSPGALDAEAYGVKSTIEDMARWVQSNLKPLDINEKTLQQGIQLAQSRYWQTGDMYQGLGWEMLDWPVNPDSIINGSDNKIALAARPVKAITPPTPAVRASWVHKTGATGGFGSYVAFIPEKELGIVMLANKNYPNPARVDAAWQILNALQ
row,Compound,Potency
1,COc1ccc(CCN2CC(C(=O)N3CCSCC3)CCC2=O)cc1 (stereo unspecified),"inconclusive [inhibitor, full curve, poor fit]"
2,COc1cccc(NC(=O)C(CCSC)NC(=O)C2CCC(C)CC2)c1 (stereo unspecified),inactive
3,Cc1ccccc1Nc1nc(N)nc(COC(=O)c2ccccc2)n1,inactive
4,CCOC(=O)/C=C/c1ccc2oc3ccccc3c(=O)c2c1,"inconclusive [inhibitor, partial curve, poor fit]"
5,CCn1c(=O)cc(OCC(=O)NCc2ccco2)c2ccccc21,inactive
6,CC(C)(C)c1ccccc1NC(=O)Cn1cnc2cc([N+](=O)[O-])ccc2c1=O,"inconclusive [inhibitor, full curve, poor fit]"
7,O=C(/C=C(\O)c1ccccc1)C(=O)NNC(=O)c1ccccc1[N+](=O)[O-],"inconclusive [inhibitor, partial curve]"
8,O=S(=O)(c1ccccc1)N1CCC(N2CCN(c3ccccc3)CC2)CC1,"inconclusive [inhibitor, full curve, poor fit]"
9,Cc1ccccc1-c1nnn(CC(=O)N2CCN(S(=O)(=O)c3ccc(Cl)cc3)CC2)n1,"inconclusive [inhibitor, single point]"
10,Cc1cc2ccccc2n2c(SCC(=O)Nc3ccc(S(=O)(=O)N4CCCCC4)cc3)nnc12,"inconclusive [inhibitor, full curve]"
11,COc1ccc(CC(=O)n2[nH]c(=O)ccc2=O)cc1OC,"inconclusive [inhibitor, partial curve, poor fit]"
12,Cc1cc(C)cc(NC(=O)c2sc3nc(C)cc(C)c3c2N)c1,inactive
13,Cc1ccc(C(=O)NCC(=O)OCC(=O)Nc2ccccc2C#N)s1,"inconclusive [inhibitor, partial curve]"
14,COc1ccc(NC(=O)CSC2=Nc3ccccc3C3=NC(CCC(=O)NCCc4ccccc4)C(=O)N23)c(OC)c1 (stereo unspecified),inactive
15,c1cc(CNc2ccc3c(c2)OCCO3)ccn1,inactive
16,c1ccc(-c2cc(-c3ccc(N4CCOCC4)cc3)nc3ccccc23)cc1,"inconclusive [inhibitor, full curve, poor fit]"
17,Cc1cc(O)c(CN2CCN(c3ccccc3)CC2)cc1C,inactive
18,COc1ccc(N2CCN(C3CCCN(C(=O)CSC)C3)CC2)cc1 (stereo unspecified),inactive
19,COc1cc(OC)c(C2=NOC(C(=O)NCc3cccnc3)C2)cc1Cl (stereo unspecified),"inconclusive [inhibitor, full curve, poor fit]"
20,CSCc1ccc(C(=O)N2CCCC(Nc3ccc4c(c3)OCCO4)C2)o1 (stereo unspecified),"inconclusive [inhibitor, partial curve, poor fit]"
21,COc1ccc2sc(N(CCCN(C)C)C(=O)c3ccc(C(=O)c4ccccc4)cc3)nc2c1,"inconclusive [inhibitor, single point]"
22,CN(c1cccc(NC(=O)COc2ccccc2)c1)S(C)(=O)=O,"inconclusive [inhibitor, single point]"

row,Compound,Potency
1,O=C(Nc1ccc(N2CCCC2)c(Cl)c1)c1ccccc1[N+](=O)[O-],inactive
2,C=CCOc1ccc(/C=C2\C(=N)N3N=C(S(=O)(=O)CC)SC3=NC2=O)cc1OC,"inconclusive [inhibitor, partial curve]"
3,COc1ccccc1N1C(=O)C(Cl)=C(Nc2ccccc2O)C1=O,inactive
4,CCCn1c2ccccc2c2cnn(CC(=O)NCCCN3CCCC(C)C3)c(=O)c21 (stereo unspecified),inactive
5,COc1cc(OC)cc(C(=O)NC2CCSC2=O)c1 (stereo unspecified),"inconclusive [inhibitor, full curve, poor fit]"
6,COc1ccc(OCc2cc(C(=O)NC(C)Cc3ccccn3)no2)c(Cl)c1 (stereo unspecified),inactive
7,Cc1nc2ccccc2nc1OCc1cccc(Cl)c1,"inconclusive [inhibitor, single point]"
8,CC1CCN(CC(C)OC(=O)c2ccc3c(c2)OCCO3)CC1 (stereo unspecified),"inconclusive [inhibitor, full curve, poor fit]"
9,CCC(CC)C(=O)NCCc1cc2ccc(C)cc2[nH]c1=O,"inconclusive [inhibitor, full curve, poor fit]"
10,O=C(NCc1cccnc1)C1CCCN(S(=O)(=O)c2cccc3nsnc23)C1 (stereo unspecified),"inconclusive [inhibitor, full curve]"
11,O=C(Oc1ccccc1)c1cc2ccccc2oc1=O,"inconclusive [inhibitor, single point]"
12,CCc1cc(C(=O)OC)c(NC(=O)CN2CCN(C(=O)c3ccco3)CC2)s1,inactive
13,COc1ccc(COC(=O)C2CCN(S(=O)(=O)c3ccc(F)cc3)CC2)cc1,"inconclusive [inhibitor, partial curve, poor fit]"
14,CC(C)NC(=O)c1ccc(-n2nc(C(F)(F)F)c3c2CCCC3)cc1,"inconclusive [inhibitor, partial curve, poor fit]"
15,CCOC(=O)c1nnc(-c2ccccc2)nc1Sc1c(Cl)cccc1Cl,"inconclusive [inhibitor, full curve, poor fit]"
16,CC(C)CNc1oc(-c2ccco2)nc1C#N,"inconclusive [inhibitor, single point]"
17,O=C(CN1CCCC1)NC1C2CC3CC(C2)CC1C3 (stereo unspecified),"inconclusive [inhibitor, single point]"
18,Cc1ccc(-n2c(Cl)c(Cl)nc(Cl)c2=O)cc1,"inconclusive [inhibitor, partial curve]"
19,CC[N+]1(C)[C@@H]2CC[C@H]1CC(OC(=O)[C@H]1CCC(C(=O)OC3C[C@H]4CC[C@@H](C3)[N+]4(C)CC)(c3ccccc3)c3ccccc31)C2 (stereo partly specified),"inconclusive [inhibitor, full curve, poor fit]"
20,O=c1[nH]c(-c2ccccc2Cl)nc2c1sc(=S)n2-c1ccccc1,"inconclusive [inhibitor, full curve, poor fit]"
21,O=C(N/N=C/C1CC=CCC1)c1ccccc1O (stereo unspecified),"inconclusive [inhibitor, full curve, poor fit]"
22,Cc1c(NC(=O)c2cc(=O)[nH]c(=O)[nH]2)c(=O)n(-c2ccccc2)n1C,"inconclusive [inhibitor, full curve]"

row,Compound,Potency
1,O=C1NC[C@@H](Cc2cccc3ccccc23)N(CC2(c3ccccc3)CC2)C1=O,inactive
2,Cc1cc(C)n(S(=O)(=O)c2ccc(F)cc2)n1,"inconclusive [inhibitor, partial curve, poor fit]"
3,Cc1ccccc1-n1c(SCC(=O)NCc2cccs2)nc2ccccc2c1=O,inactive
4,CC(=O)NC(c1cc(Cl)c2cccnc2c1O)C(C)C (stereo unspecified),"inconclusive [inhibitor, full curve, poor fit]"
5,O=C(Nc1ccccc1Oc1ccsc1C(=O)O)c1ccccc1,"inconclusive [inhibitor, full curve, poor fit]"
6,COc1ccc(N2CCN(C(=O)c3ccc(C)c(NC(=O)C4=C(C)OCCS4)c3)CC2)cc1,inactive
7,N/C(=N\OC(=O)Cc1ccc(Cl)cc1)c1ccccn1,inactive
8,Cc1nn(-c2ccccc2)c(C)c1NC(=O)COc1ccc([N+](=O)[O-])cc1,"inconclusive [inhibitor, full curve, poor fit]"
9,COc1ccc(C2C(C(=O)c3ccccc3)=C(C)Nc3nc4ccccc4n32)cc1OC (stereo unspecified),"inconclusive [inhibitor, partial curve, poor fit]"
10,Cc1ccc(CNC(=O)c2ccc3c(c2)N(Cc2cccc(C)c2)C(=O)CS3)cc1,"inconclusive [inhibitor, full curve, poor fit]"
11,CCN1CCN(C(=O)CCNC(=O)Cn2cnc3ccccc3c2=O)CC1,"inconclusive [inhibitor, full curve, poor fit]"
12,Cc1ccccc1OCCCc1c(C)n[nH]c1C,"inconclusive [inhibitor, single point]"
13,COc1ccc(CCNCc2ccccc2F)cc1OC,inactive
14,Cc1ccccc1OCc1nnc(SCC(=O)NCc2ccco2)n1C,inactive
15,CCc1ccccc1NC(=O)COc1cccc(-n2cnnn2)c1,"inconclusive [inhibitor, full curve, poor fit]"
16,O=C(Oc1cccc2ccccc12)c1ccncc1,"inconclusive [inhibitor, partial curve, poor fit]"
17,Cc1ccc(C(=O)C(c2ccccc2)N2Cc3ccccc3C2=N)cc1 (stereo unspecified),"inconclusive [inhibitor, full curve, poor fit]"
18,COc1ccc(OC)c(S(=O)(=O)Nc2c(F)cccc2F)c1,"inconclusive [inhibitor, full curve, poor fit]"
19,CCNC(=S)Nc1nc2c(cc1C(=O)OCC)CCCC2,"inconclusive [inhibitor, full curve, poor fit]"
20,COc1ccc(-n2nc(C(=O)NCC(=O)N3CCN(C)CC3)c3ccccc3c2=O)cc1,"inconclusive [inhibitor, full curve, poor fit]"
21,CCn1c(COc2ccccc2C)nnc1SCC(=O)Nc1cc(C)on1,"inconclusive [inhibitor, full curve, poor fit]"
22,CCOC(=O)N1CCC(NC(=O)c2ccc(CO)c(C(=O)NC3CCN(C(=O)OCC)CC3)c2)CC1,"inconclusive [inhibitor, full curve]"
